# Hit rate of the full screen: of about 220,000 compounds, about 5,700 (2.6%) were called active. Inconclusive results, whose numbers are uncertain, are shown with a selection of clear calls. The call rests on the fitted dose curve; in most records, active means well fitted inhibition curve with a large enough effect; inconclusive means small, poorly fitted or top-dose-only effect; inactive means no such curve, though single readings can be large or run the other way. Potencies beside an inconclusive call are fits to weak or partial responses and may not hold up.
# Biological target: Lysine-specific demethylase 5B (Homo sapiens) (UniProt Q9UGL1)
# Assay: Primary screen for KDM5B Histone Demethylases FDH-coupled qHTS; further: nearly all actives have a fitted effect of over 70% in size; on activity change, negative = inhibition: 0% is about no effect
# Conditions: FDH-coupled NADH fluorescence (FDH is formaldehyde dehydrogenase); activity change, negative = inhibition: at 57.7 µM (top of the series) unless noted
# Procedure, shortened: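 Compound dilutions met 200 nM (final) KDM5BΔAP for 10 min at room temperature before substrate addition. The substrate mix held 12.5 µM H3K4me3 with cofactors 25 µM α-ketoglutarate and 50 µM Fe²⁺. NADH signal gain over 30 min defined activity.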
# Potency means the concentration at half of the fitted maximal effect; tags describe the fitted curve by direction and shape.
# Sequence of UniProt Q9UGL1 (Q9UGL1 whole entry, looked up): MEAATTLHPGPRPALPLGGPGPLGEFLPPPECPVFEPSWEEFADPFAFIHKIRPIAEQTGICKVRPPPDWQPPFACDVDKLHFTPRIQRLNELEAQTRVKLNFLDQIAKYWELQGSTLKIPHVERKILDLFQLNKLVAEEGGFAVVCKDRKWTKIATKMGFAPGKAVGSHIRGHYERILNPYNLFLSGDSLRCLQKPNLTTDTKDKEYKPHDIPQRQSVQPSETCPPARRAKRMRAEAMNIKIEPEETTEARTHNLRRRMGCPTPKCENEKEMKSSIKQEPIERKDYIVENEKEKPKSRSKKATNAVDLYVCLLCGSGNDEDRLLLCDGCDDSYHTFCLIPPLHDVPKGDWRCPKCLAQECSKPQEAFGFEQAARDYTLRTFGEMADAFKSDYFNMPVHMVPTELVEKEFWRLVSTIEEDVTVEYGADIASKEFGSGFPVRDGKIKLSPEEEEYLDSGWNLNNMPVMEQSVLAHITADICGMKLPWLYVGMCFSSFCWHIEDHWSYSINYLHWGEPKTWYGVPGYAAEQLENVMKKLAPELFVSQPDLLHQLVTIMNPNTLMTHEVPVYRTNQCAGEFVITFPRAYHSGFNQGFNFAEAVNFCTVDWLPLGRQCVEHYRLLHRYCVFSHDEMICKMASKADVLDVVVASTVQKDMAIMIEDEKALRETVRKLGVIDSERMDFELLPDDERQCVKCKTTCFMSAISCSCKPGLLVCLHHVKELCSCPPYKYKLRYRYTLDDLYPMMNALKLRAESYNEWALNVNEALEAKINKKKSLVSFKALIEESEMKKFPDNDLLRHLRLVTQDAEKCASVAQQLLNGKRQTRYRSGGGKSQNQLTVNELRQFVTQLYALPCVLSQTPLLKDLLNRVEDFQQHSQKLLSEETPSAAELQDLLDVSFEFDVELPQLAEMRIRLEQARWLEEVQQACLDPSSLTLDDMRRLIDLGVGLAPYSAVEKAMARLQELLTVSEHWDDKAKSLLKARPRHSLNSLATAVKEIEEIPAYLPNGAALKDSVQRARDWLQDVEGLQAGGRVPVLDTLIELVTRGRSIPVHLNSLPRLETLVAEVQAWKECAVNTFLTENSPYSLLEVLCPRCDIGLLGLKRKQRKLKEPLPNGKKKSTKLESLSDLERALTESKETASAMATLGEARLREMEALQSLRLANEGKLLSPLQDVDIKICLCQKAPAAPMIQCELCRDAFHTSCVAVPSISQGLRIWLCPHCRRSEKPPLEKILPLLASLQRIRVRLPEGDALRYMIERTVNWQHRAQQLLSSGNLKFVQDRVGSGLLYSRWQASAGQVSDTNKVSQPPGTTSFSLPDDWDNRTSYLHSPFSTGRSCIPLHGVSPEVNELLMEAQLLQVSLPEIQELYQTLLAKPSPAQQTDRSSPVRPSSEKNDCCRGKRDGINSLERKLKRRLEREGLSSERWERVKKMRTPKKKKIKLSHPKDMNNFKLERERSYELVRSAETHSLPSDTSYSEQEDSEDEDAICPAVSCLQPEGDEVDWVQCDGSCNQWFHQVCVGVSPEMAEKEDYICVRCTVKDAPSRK
Compound,Potency,"activity change, negative = inhibition"
CCN(CC)CCCNc1oc(-c2ccccc2F)nc1C#N,"inconclusive: 25.1 µM [inhibitor, partial curve, poor fit]",
CN(C)c1ccc(-c2nc(-c3cccs3)c(-c3cccs3)[nH]2)cc1,"inconclusive: 7.94 µM [inhibitor, partial curve, poor fit]",
CCOc1ccc(/C=C/c2nc(C#N)c(NCc3ccc(F)cc3)o2)cc1,"inconclusive: 1.78 µM [inhibitor, full curve, poor fit]",
Cc1ccc(C(=O)N2CCCN(CC3CC3)C(C(C)C)C2)cn1 (stereo unspecified),"inconclusive: 20 µM [inhibitor, partial curve, poor fit]",
CCCn1c(SCC(O)c2ccccc2)nc2ccccc21 (stereo unspecified),"inconclusive: 31.6 µM [inhibitor, partial curve, poor fit]",
COc1ccc(-c2cc3c(=O)n(CC(=O)Nc4cc(F)ccc4F)ccn3n2)cc1OC,"inconclusive: 3.98 µM [inhibitor, full curve, poor fit]",
O=C1COc2ccc(-c3cc(-c4ccccc4)c4c(n3)-c3ccccc3OC4)cc2N1,"inconclusive: 17.8 µM [inhibitor, partial curve, poor fit]",
O=C(O)c1cnc(N2CCCCC2)nc1-c1ccccc1,"inconclusive: 28.2 µM [inhibitor, partial curve, poor fit]",
Cc1ncsc1CN1C[C@@H](NC(=O)c2cccnc2)C[C@H]1CO,"inconclusive: 15.8 µM [inhibitor, partial curve]",
O=C(NCCc1ccc(Cl)cc1)c1ccc2c(c1)N(Cc1ccc(F)cc1)C(=O)CS2,,inconclusive: -35.2% [inhibitor]
COc1ccc(-c2cc(C(=O)N3CCCC3)c3ccccc3n2)c(OC)c1,"inconclusive: 35.5 µM [inhibitor, single point]",
COC(=O)c1ccc(NS(=O)(=O)c2ccc3[nH]c4c(c3c2)CCCC4)cc1,"inconclusive: 10 µM [inhibitor, partial curve, poor fit]",
COc1ccc(-n2cc(CN3CCCC(O)C3)c(-c3cccc(F)c3)n2)cc1 (stereo unspecified),active: 22.4 µM,
Cc1ccsc1-c1nc(-c2ccc3c(c2)OCCCO3)cs1,"inconclusive: 28.2 µM [inhibitor, single point]",
COCc1noc(-c2ccc(NC[C@H]3CCc4ccccc4O3)nc2)n1,"inconclusive: 25.1 µM [inhibitor, partial curve, poor fit]",
Cc1cccc(C(c2sc3nc(-c4ccco4)nn3c2O)N2CCN(c3ccccc3F)CC2)c1 (stereo unspecified),"inconclusive: 31.6 µM [inhibitor, single point]",
Cc1cccc(-c2nc(Cn3nc(C)c4c(C)onc4c3=O)c(C)o2)c1,"inconclusive: 28.2 µM [inhibitor, partial curve, poor fit]",
Cc1ccccc1C(=O)Oc1ccc(F)cc1C(=O)/C=C/c1ccccc1F,"inconclusive: 22.4 µM [inhibitor, partial curve, poor fit]",
Cc1c(OC(C(=O)O)c2ccccc2)ccc2c(-c3ccccc3)cc(=O)oc12 (stereo unspecified),"inconclusive: 31.6 µM [inhibitor, partial curve, poor fit]",
CC(C)N(Cc1nccn1C)C(=O)CC1C(=O)NCCN1Cc1ccc(F)c(F)c1 (stereo unspecified),"inconclusive: 15.8 µM [inhibitor, partial curve, poor fit]",
COc1ccc(OC)c(NC(=O)c2cnc(N3CCCCC3)c3ccccc23)c1,"inconclusive: 31.6 µM [inhibitor, partial curve, poor fit]",

Compound,Potency,"activity change, negative = inhibition"
COc1ccccc1C(=O)OCc1cc(=O)n2nc(-c3cccs3)sc2n1,"inconclusive: 2.51 µM [inhibitor, partial curve, poor fit]",
O=C(Nc1cccc2ccccc12)NC1Cc2ccccc2C1,"inconclusive: 12.6 µM [inhibitor, partial curve, poor fit]",
C=CCNc1oc(-c2ccc(COc3cccc(C)c3)o2)nc1C#N,"inconclusive: 28.2 µM [inhibitor, partial curve, poor fit]",
CCCCOc1ccc(C2C(C(=O)c3ccc(C)o3)=C(O)C(=O)N2Cc2ccco2)cc1 (stereo unspecified),"inconclusive: 14.1 µM [inhibitor, partial curve, poor fit]",
CC(=O)N1CCCC2(C1)C(=NC1CCCC1)NC(=O)N2c1cc(F)cc(F)c1 (stereo unspecified),,inactive: -13.2%
COc1ccc(/C=C/C(=O)Oc2cccc(C)c2)cc1,,inactive: -11.7%
CCOC(=O)C[C@@H]1C[C@@H](C(C)C)[C@H](CNS(=O)(=O)c2ccc(OC)cc2)C=C1C,"inconclusive: 5.62 µM [inhibitor, full curve]",
COC(=O)Cn1c(=O)c2c3c(sc2n(Cc2ccccc2)c1=O)CCC3,,inactive: 9.9%
CCC(O)(CC)C(=O)N/N=C/c1cc(Br)cc(Br)c1O,"inconclusive: 20 µM [inhibitor, partial curve, poor fit]",
CN1CCN(CCNC(=O)c2cc(-c3ccccc3)cn2C)CC1,,inactive: -13.3%
Cc1ccc2c(n1)N(C)[C@H](CO)CCN(Cc1ccc(F)c(F)c1)C2,,inactive: -22.7% [at 86.2 µM]
O=C(CSc1ncc(-c2ccccc2)o1)NCC1CC1,,inactive: 1.13%
CC(C)CNS(=O)(=O)CC1NCc2ccccc21 (stereo unspecified),"inconclusive: 22.4 µM [inhibitor, partial curve, poor fit]",
COCCOc1ccc(-c2noc([C@@H]3CCCN3C3CCCCC3)n2)cn1,"inconclusive: 44.7 µM [inhibitor, partial curve, poor fit]",
CN1CCC(N[C@H]2C[C@@H](Cc3cc(-c4ccc(F)cc4)on3)C2(C)C)CC1,,inactive: 25.3% [at 86.2 µM]
CN(C)c1nc2c(c(=O)[nH]1)CCN(Cc1ccc(F)cc1Cl)CC2,,inactive: -15.2%
COc1ccc(NC(=O)C2(C)CN(C)Cc3ccc(NCc4ccccc4)nc32)cn1 (stereo unspecified),active: 31.6 µM,
Cc1ccccc1-c1nc(-c2ccccc2OCC(=O)N2CCCC(C)C2)no1 (stereo unspecified),,inactive: -0.418%
COc1ccc(-c2nc(-c3nnn4c3COC(c3ccc(C)cc3)C4)no2)cc1OC (stereo unspecified),active: 14.1 µM,
CCC(C)NC(=O)COC(=O)c1nn(-c2ccccc2)c(=O)c2ccccc12 (stereo unspecified),,inactive: 3.83%

# — PubChem BioAssay AID1347165 (National Center for Advancing Translational Sciences (NCATS), 2019)
